In PubChem BioAssay AID686979 (National Center for Advancing Translational Sciences (NCATS), 2013):
Hit rate of the full screen: of about 420,000 compounds, about 50,000 (12%) were called active. The inconclusive results got no clear call from the source; some entries with a clear call stand among them for comparison. Calls come from the whole dose curve; as a rule, active = well fitted inhibition curve with a large enough effect; inconclusive = small, poorly fitted or top-dose-only effect; inactive = flat fitted curve, though single readings scatter. Potencies of inconclusive entries are left out as doubtful fits.

Experiment: qHTS for Inhibitors of human tyrosyl-DNA phosphodiesterase 1 (TDP1): qHTS in cells in presence of CPT; note: nearly all actives have a fitted effect of over 55% in size
Settings: chicken DT40 Tdp1-/-;hTDP1 cells + 20 nM CPT, ATP luminescence, 48 h; activity change, negative = growth inhibition: at 46.2 µM (top of the series) unless noted
Method in brief: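 Chicken DT40 Tdp1-/- cells stably complemented with human TDP1 were seeded at 400 cells/well in medium containing 20 nM camptothecin, exposed to pin-transferred compounds, and grown at 37 °C for at least 48 hr. Viability was read as ATP luminescence.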
% is set by controls: 0 for no effect and ±100 for the full control effect; potency is the fitted concentration of half-maximal effect; tags give direction and shape of the fitted curve.

SMILES	Potency	activity change, negative = growth inhibition
CC(Oc1ccc2ccccc2c1)C(=O)NNC(=S)NC(=O)c1ccco1 (centres undefined)	active: 23.1 µM	
O=C(Nc1ccccc1)C(Cl)C(=O)c1ccccc1 (centres undefined)	active: 6.51 µM	
CN(C)C(=O)c1ccc(-c2cncnc2N(C)Cc2ccco2)cc1	inactive	
c1ccc2c(OCCCCN3CCOCC3)cccc2c1	inactive	
COc1cccc(-n2nnnc2SCC(=O)NCc2ccc3c(c2)OCO3)c1		inconclusive: -33.1% [inhibitor]
NC(=O)C1C2CCC(C2)C1C(N)=O (centres undefined)		inconclusive: -9.29% [inhibitor]
Cc1ccccc1OCC(=O)Nc1nnc(S(=O)(=O)N(C)c2ccccc2)s1	inactive	
CCOc1ccc(N(CC(=O)Nc2cc(Cl)ccc2C)S(C)(=O)=O)cc1	inconclusive [inhibitor, single point]	
O=C(Cn1c(=O)n(-c2ccccc2)c(=O)c2c3c(sc21)CCCC3)Nc1ccc(F)cc1	inconclusive [inhibitor, single point]	
COc1ccccc1N1CCN(C(=O)c2cc3c(=O)n(Cc4cccnc4)ccc3nc2C)CC1	inactive	
COc1ccc(S(=O)(=O)Nc2ccc3c(c2)C(=O)N([C@@H](C)CO)C[C@H](C)[C@H](CN(C)S(=O)(=O)c2ccc(F)cc2)O3)cc1	inconclusive [inhibitor, single point]	
CN1CCc2c(sc3c2C(=O)NC(c2ccc(-c4ccc(Cl)cc4)o2)N3)C1 (centres undefined)	inconclusive [inhibitor, single point]	
COc1ccc(Br)cc1CNC(=O)c1cc2c(=O)n(C)c3ccccc3c2s1	inactive	
CCNc1nc(N2CCCCC2)nc(-n2nnc(C(=O)OCC)c2C)n1	inconclusive [inhibitor, single point]	
Cc1cccc(CCNC(=O)c2nc(-c3ccc(Cl)cc3)n3c2CCCCC3)c1	active: 10.3 µM	
Cc1c(C(=O)N2CCCCC2)c(S(=O)(=O)NCCc2ccc(Cl)cc2)c(C)n1C	inconclusive [inhibitor, single point]	
CC(C)C[C@@H](COCc1cccc(Cl)c1)N1CCN(C(=O)c2cccc(C(F)(F)F)c2)CCC1=O	inconclusive [inhibitor, single point]	
Clc1ccc(SCNc2ccccc2Cl)cc1	active: 9.2 µM	
FC(F)(F)c1nc2ccccc2[nH]1	inconclusive [inhibitor, single point]	
CCOC(=O)c1cc(CC)sc1NC(=O)CSc1nc2ccccc2c(=O)n1Cc1ccco1	inconclusive [inhibitor, partial curve, poor fit]	
COc1ccc(CN(Cc2ccccc2)C(C)=O)cc1COc1ccc(NC(C)=O)cc1	inconclusive [inhibitor, single point]	
CCN1CCN(c2ncc3c(n2)CCN(Cc2ccc(C)s2)C3)CC1	inconclusive [inhibitor, single point]	
Clc1cccc2sc(-c3nnc(-c4ccccc4)o3)c(Cl)c12	inactive	
COC(=O)c1sc(NC(=O)c2ccco2)nc1C	inconclusive [inhibitor, single point]	
OC(c1cccc(Cl)c1)c1nc(-c2ccc(Cl)cc2)cs1 (centres undefined)	inconclusive [inhibitor, single point]	

SMILES	Potency	activity change, negative = growth inhibition
CC(C)CC(=O)N(Cc1ccccc1)S(=O)(=O)c1ccc2c(c1)oc(=O)n2C	inactive	
COC(=O)c1ccc(/C=N/OCC(=O)NC2CCCC(C)C2C)cc1 (centres undefined)	inconclusive [inhibitor, single point]	
CCn1c2c(c(=O)n3ncc(C(=O)Nc4ccc(F)c(Cl)c4)c13)CN(Cc1ccc(OC)cc1)CC2	inconclusive [inhibitor, single point]	
CC(=O)c1ccc(NC(=O)COc2ccccc2-c2nc(C)no2)cc1	inactive	
O=C(O)CC(C(=O)O)C(=Cc1ccccc1)c1ccccc1 (centres undefined)	inactive	
Cc1cc(N2C(=O)C(O)=C(C(=O)c3ccc(C)o3)C2c2cccc(Cl)c2)no1 (centres undefined)	inconclusive [inhibitor, single point]	
COc1ccc(-c2nc(SCC(=O)NCc3ccco3)c(-c3ccccc3)[nH]2)cc1OC	inconclusive [inhibitor, single point]	
CCCCNC(=O)c1ccc2c(c1)N(C)C(=O)c1ccccc1S2	inconclusive [inhibitor, partial curve]	
CCn1c(SC(C)C(=O)NCC2CCCO2)nc2ccccc21 (centres undefined)	inactive	
CC(C)CNC(=O)c1cccc(NC(=O)C2CCCO2)c1 (centres undefined)	inactive	
CCCCCC1CCC(C(=O)N2CCOCC2)CC1 (centres undefined)	inactive	
CCN(CC(=O)NCc1cccs1)S(=O)(=O)c1cccc(Br)c1	inactive	
CC(=O)c1cc(-c2ccccc2)n(CC(=O)Nc2ccc(C)cc2C)c1C	inconclusive [inhibitor, single point]	
FC(F)Oc1ccc(NC(=S)N2CCN(Cc3ccccc3)CC2)cc1	inactive	
Cc1ccccc1C(=O)c1cccn1CC(=O)N1CCCCCC1	inactive	
COc1cc2oc(-c3ccccc3)cc(=O)c2cc1OC	inactive	
O=C(Cn1cnc2c(OCc3ccccc3)ncnc21)NCc1ccccn1	inactive	
O=C(Nc1ccccc1)c1cc(C2CCCCN2C(=O)CCCc2ccccc2)on1 (centres undefined)	inconclusive [inhibitor, single point]	
COc1cccc(N2CCN(CC(=O)Nc3nnc(-c4ccccc4)s3)CC2)c1	active: 23.1 µM	
COc1cc2c(NC3CCN(C(C)C)CC3)nc(N3CCCN(C)CC3)nc2cc1OCCCN1CCCC1	active: 5.01 µM	
Oc1c(Cl)cc(Cl)cc1/C=N/c1nc(-c2ccc(Cl)cc2)cs1	inactive	
Cc1nn(-c2cccc(Cl)c2)c(Cl)c1/C=N/NC(=O)c1cccs1	active: 16.4 µM	
COc1ccc(-c2noc(N3CCC(C(=O)Nc4ccc(OC)cc4OC)CC3)n2)cc1	inconclusive [inhibitor, partial curve]	
CC(C)n1ncc2c(C(=O)NCCc3ccc(F)cc3)cc(C3CC3)nc21	inconclusive [inhibitor, single point]	
